The full ranking holds about 2,300 sequences; the median of “median log2 fold change of GCK-ALFA target abundance (FLAG IP / Myc IP barcode read proportion)” is about 0.095, and the lowest 2% start at about -0.47. The list shows a part of the results.
B1: LC3A_28_1094 (protein)
chain: SELEKQLEEALKEVKEAAAAGEEVTVTIDVTDEATEEDIELLKEKLEEMAEIGKTLPRLSVIINLSGSKQQEFADIIGDFADELEAKYPNLTIIIALDED
B2: LC3A_28_1091 (protein)
chain: SALDASLAAALAETRAAAAAGEEVLVTITVTDEATEEDIERLKATLEEIAEIAASLPRLTVVIDLEGENQEEKANILSEFADELEAKYPNLTVIIALEEE
B3: LC3A_23_627 (protein)
chain: KVKLTVLIETIGSEEEIEENIKKVKEKVEEIKEKYKDKVLEVEVEVEVEKDEDGQWIAIITIKIVFDNDLEAAKEAAEELISFADENIPNGVVSYEIEEL
B4: LC3A_free_46_2403 (protein)
chain: YKGTIEIDALAESKEKAEQLAKEIKEAAEEIAKKYGAKVEIEVEIEEDEDGTVFVNITITVEAETEEKLQKFINEFIKKVDEIAEKLGVSYIISYEIEKL
B5: LC3A_28_1020 (protein)
chain: SHMEARVAAIEKEIKAAVAAGEEVVVTFTITPEDSLEEVRAAMARLKEIVLEAAKKGKVSLVVDLEKGVSQEKLDIVMEAADEIEAAAPNANVIIALEEE
B6: LC3A_45_1989 (protein)
chain: MAKATLDLLVPREKLEEALEVIERTAAELEARYGPALKVDLEKARKSAEETKDEEEVYLEVEITAPDMQTVLDAADEIEDALHEELGDSVASIISYDELE
B7: LC3A_28_1019 (protein)
chain: SAMEARVAAIEAEIAAAIAAGEDVVVTFTITPEDSLEEVRAAMERLKEIVLRAAKEGKVSLVVDLERGVSQEKLDVVAEKGDEIEEKAPNANVIIALEEE
B8: LC3A_free_46_2377 (protein)
chain: YKIIIDIDFSAMSREKAEEMAEEIKKAAEEISKKTGVKIEVEVEIITDEEGETWLRVRVTIEGEDEEKVRKAATELVDKFEEIAEEHGVSLIISIEEIKE

These binders were tested against MAP1LC3A, Q9H492 (assay: median log2 fold change of GCK-ALFA target abundance (FLAG IP / Myc IP barcode read proportion) (log2 ratio); each designed protein is fused to an ALFA-tag nanobody in HEK293 cells to bring the named protein to FLAG-tagged glucokinase (GCK); Myc marks an untargeted standard; higher = target protein stabilised (more abundant)). Conditions: target protein: 3xFLAG-MCP-GCK-ALFA reporter; HEK293 landing pad (RPLP).
Procedure, shortened: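 The readout is target abundance, the per-binder median log2 ratio of FLAG to Myc barcode read proportions. It came from HEK293 landing-pad cells carrying a recombined ALFA-nanobody-fused binder library, induced with 2 μg mL^−1 doxycycline and transfected with a plasmid for a FLAG-tagged target and a Myc-tagged standard. After 48 h, lysates were immunoprecipitated with anti-FLAG and anti-Myc, and circular RNA barcodes were reverse transcribed, amplified and sequenced. Each barcode needed a proportion of at least 10^−7 in both replicates and each binder at least 3 barcodes per replicate, a pseudocount of 10^−6 was added, and the replicates were pooled.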

Question: Which “median log2 fold change” value does the source give for B1 here?
Answer: 0.189

Question: How did the “median log2 fold change” value turn out when B2 was run?
Answer: 0.139

Question: With B3 as the binder, how does the “median log2 fold change” value read?
Answer: 0.0177

Question: For B4, which “median log2 fold change” value is on record?
Answer: -0.0704

Question: For B5, which “median log2 fold change” value is on record?
Answer: -0.448

Question: With B6 as the binder, how does the “median log2 fold change” value read?
Answer: -0.0527

Question: Which “median log2 fold change” value does the source give for B7 here?
Answer: -0.357

Question: Which “median log2 fold change” value does the source give for B8 here?
Answer: -0.267
